Source: PubChem BioAssay AID588342 (National Center for Advancing Translational Sciences (NCATS), 2011)
In all, about 360,000 compounds went through this assay and about 25,000 (6.9%) were called active. The shares of active, inactive and inconclusive entries below differ from those in the screen. Calls follow the shape of the dose curve; as a rule, active = well fitted inhibition curve with a large enough effect; inconclusive = small, poorly fitted or top-dose-only effect; inactive = flat fitted curve, though single readings scatter. Potencies beside an inconclusive call are fits to weak or partial responses and may not hold up.

Molecular target: Luciferin 4-monooxygenase (Photinus pyralis) (UniProt P08659)
UniProt P08659, sequence (P08659 whole entry, looked up): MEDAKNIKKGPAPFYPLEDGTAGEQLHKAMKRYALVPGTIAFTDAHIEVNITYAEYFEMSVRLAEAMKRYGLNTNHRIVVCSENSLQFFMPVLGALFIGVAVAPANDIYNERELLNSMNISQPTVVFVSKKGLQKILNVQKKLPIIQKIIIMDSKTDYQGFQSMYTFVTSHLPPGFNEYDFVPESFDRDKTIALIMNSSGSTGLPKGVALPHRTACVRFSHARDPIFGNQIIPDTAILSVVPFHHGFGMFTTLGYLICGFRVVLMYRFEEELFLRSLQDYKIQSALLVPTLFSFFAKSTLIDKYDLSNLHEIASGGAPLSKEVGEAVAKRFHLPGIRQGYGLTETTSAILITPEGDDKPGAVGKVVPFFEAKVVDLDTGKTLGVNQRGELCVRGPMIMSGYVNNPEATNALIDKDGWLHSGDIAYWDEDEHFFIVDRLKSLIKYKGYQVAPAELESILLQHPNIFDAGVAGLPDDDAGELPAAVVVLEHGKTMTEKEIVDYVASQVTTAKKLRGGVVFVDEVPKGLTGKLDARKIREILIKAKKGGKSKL
Assay: qHTS profiling assay for firefly luciferase inhibitor/activator using purifed enzyme and Km concentrations of substrates (counterscreen for miR-21 project); also: nearly all actives have a fitted effect of over 55% in size
Details: purified FLuc, luminescence inhibition; series mostly up to 57.5 µM
How it was run: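 Purified P. pyralis luciferase, 10 nM final, with Km-level 10 uM D-luciferin and 10 uM ATP in 50 mM Tris acetate pH 7.5, 10 mM Mg acetate, 0.01% Tween-20, 0.05% BSA; 6-point qHTS titration about 60 µM downward; luminescence read.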
Potency is read from the fitted curve at half-maximal effect; tags tell the direction and shape of the fitted curve.

Row | Structure (SMILES) | Potency
1 | Cc1ccn2cc(-c3ccc(S(=O)(=O)N4CCOCC4)cc3)nc2c1 | inconclusive: 10.7 µM [inhibitor, partial curve, poor fit]
2 | COc1ccc(C2Nc3ccccc3C(=O)N2c2ccc(C)cc2)cc1Cn1cc([N+](=O)[O-])cn1 (centres undefined) | inconclusive: 12 µM [inhibitor, partial curve, poor fit]
3 | CNC(=O)c1c(NC(=O)c2ccco2)sc(C)c1C | inconclusive: 37.9 µM [inhibitor, partial curve, poor fit]
4 | COc1ccc(OC)c(NC(=O)CSc2nnc(CNC(=O)c3cccs3)o2)c1 | inactive
5 | c1ccc(SCCOCCn2cncn2)cc1 | inactive
6 | COc1cccc2sc3ccc(NCc4ccc5c(c4)OCO5)cc3c(=O)c12 | inconclusive: 23.9 µM [inhibitor, single point]
7 | CCCc1cc(C(=O)Nc2ccc(C)cc2)no1 | active: 3.38 µM
8 | CCN(CC)c1ccc2cc(C(N)=O)/c(=N\NC(=O)c3ccncc3)oc2c1 | active: 16.9 µM
9 | CCC(=O)Nc1cccc(C(=O)OCc2cc(=O)n3nc(CC)sc3n2)c1 | inconclusive: 37.9 µM [inhibitor, single point]
10 | CNS(=O)(=O)c1cc(Nc2ncnc3sccc23)ccc1C | inconclusive: 37.9 µM [inhibitor, single point]
11 | CCN(CC)CCCNC(=O)c1nn(C)c2c1CS(=O)(=O)c1ccccc1-2 | inconclusive: 12 µM [inhibitor, partial curve]
12 | O=C(Cn1ncn2nc(-c3ccccc3)cc2c1=O)NCc1ccccn1 | active: 10.7 µM
13 | COc1ccc(NC(=O)c2c(-c3ccc(C)cc3)nnc3ccccc23)c(OC)c1 | inactive
14 | Cc1ccc2sc(NC(=O)c3ccc4c(c3)OCCO4)nc2c1C | active: 2.69 µM
15 | Cc1nnc(SCc2ccc(F)cc2)s1 | inconclusive: 16.9 µM [inhibitor, partial curve, poor fit]
16 | Cc1ccc(C)c(Nc2c(F)c(F)c(F)c(F)c2C(=O)O)c1 | active: 15.1 µM
17 | COC(C(=O)Nc1ccnn1C1CCN(Cc2ccc(Cl)s2)CC1)c1ccccc1 (centres undefined) | inactive
18 | CCc1cc2c(=O)c(-c3cscn3)coc2cc1OC | active: 1.69 µM
19 | CCOCCc1nn2c(=O)cc(COC(=O)C3CCCCC3)nc2s1 | inactive
20 | CCCCNc1nc(Nc2ccc(C)c(Cl)c2)c2cnn(C)c2n1 | inactive
21 | COc1ccc2nc(NC(=O)CNS(=O)(=O)c3cccs3)sc2c1 | inconclusive: 26.9 µM [inhibitor, single point]
22 | Cc1cc(C)nc(SSc2nc(C)cc(C)n2)n1 | inconclusive: 9.53 µM [inhibitor, partial curve]
23 | CC(=O)c1c(C)nc(-c2ccc(OCC(=O)Nc3ccc(F)cc3)cc2)n1O | inconclusive: 12 µM [inhibitor, partial curve]
24 | CCOc1ncccc1C(=O)OCC(=O)Nc1c(C)cc(C)cc1C | inactive
25 | COc1cccc(/C=C2/SC(=S)N(CC(=O)NNC(=O)c3ccccc3O)C2=O)c1 | inconclusive: 8.49 µM [inhibitor, partial curve, poor fit]

Row | Structure (SMILES) | Potency
26 | COc1ccc2nc(C)cc(N/N=C/c3cccc(OC)c3O)c2c1 | active: 16.9 µM
27 | CCn1cc(C(=O)OCC(=O)Nc2cccc(C(C)=O)c2)c(=O)c2ccc(C)nc21 | inactive
28 | Cc1nn(-c2ccccc2)c(C)c1/C=N/NC(=O)c1cc(-c2ccccc2)n[nH]1 | inconclusive: 2.69 µM [inhibitor, partial curve]
29 | CCOc1ccc(C2CC(=O)Nc3c2c(=O)nc(SCc2ccccc2C)n3C)cc1OC (centres undefined) | inactive
30 | Cc1[nH]c2ccccc2c1-c1nc2ccccc2[nH]c1=O | inconclusive: 30.1 µM [inhibitor, single point]
31 | O=C(NCC(=O)N(Cc1ccco1)C(C(=O)NC1CCCCC1)c1cccnc1)c1cccs1 (centres undefined) | inactive
32 | O=C(COc1ccc2ccccc2c1Br)NC(=S)Nc1cccc(CO)c1 | active: 8.49 µM
33 | COc1ccc(C(=O)NCC(c2ccc(N(C)C)cc2)N2CCc3ccccc32)c(OC)c1 (centres undefined) | inactive
34 | COc1ccc(NC(=O)CN2CCN(C(=S)NC3CCCC3)CC2)cc1 | inactive
35 | S=c1[nH]c(-c2ccccc2)cn1/N=C/c1ccc(Br)cc1 | inconclusive: 10.7 µM [inhibitor, partial curve]
36 | CC(/C=C1\SC(=S)N(CCCC(=O)Nc2ccc(C(=O)O)c(O)c2)C1=O)=C\c1ccccc1 | active: 10.7 µM
37 | COc1ccc(S(=O)(=O)NCC(c2ccco2)N2CCOCC2)cc1OC (centres undefined) | inactive
38 | O=C(Oc1ccc(/C=N/NC(=O)c2ccccc2F)cc1)c1ccccc1 | inactive
39 | COc1cccc(-n2cc3c(=O)n(C)c(=O)n(C)c3c2)c1 | inconclusive: 30.1 µM [inhibitor, single point]
40 | COc1ccc(/C(N)=N/OC(=O)c2ccc([N+](=O)[O-])c(C)c2)cc1OC | inconclusive: 37.9 µM [inhibitor, partial curve, poor fit]
41 | CCN(Cc1nc2cc(Cl)ccc2c(=O)[nH]1)C(=O)c1cc2c(s1)CCCCC2 | inconclusive: 19 µM [inhibitor, partial curve]
42 | Cc1cc(-c2ccccc2)nc(SCc2ccc(C(=O)O)cc2)n1 | inconclusive: 23.9 µM [inhibitor, single point]
43 | COc1cc2nc(CN(C)CC(=O)Nc3ccc(N4CCOCC4)cc3)[nH]c(=O)c2cc1OC | inconclusive: 21.3 µM [inhibitor, single point]
44 | CCCNC(=O)c1nc(C)n(-c2cc(Cl)ccc2Cl)n1 | inactive
45 | COc1ccccc1CNC(=O)Cc1c[nH]c2ccccc12 | inconclusive: 37.9 µM [inhibitor, partial curve, poor fit]
46 | COc1ccc(/C=C2/Sc3ccc(C(=O)NCCCN4CCOCC4)cc3NC2=O)cc1OC | inconclusive: 37.9 µM [inhibitor, single point]
47 | Fc1ccc(-c2noc3ncnc(NCCCN4CCN(c5ccccc5)CC4)c23)cc1 | inactive
48 | Cc1cc(C(=O)OCC(=O)Nc2cc(S(=O)(=O)N(C)C)ccc2C)c2ccccc2n1 | inactive
49 | Cc1ccc(OCC(=O)Oc2cccc(C)c2C)cc1 | inconclusive: 21.3 µM [inhibitor, partial curve, poor fit]
50 | Cn1ccsc1=NC(=O)c1ccc(Cl)cc1 | active: 16.9 µM

Row | Structure (SMILES) | Potency
51 | CCCCCn1c(-c2ccc(OC)c(OC)c2)nc2ccccc21 | inconclusive: 26.9 µM [inhibitor, single point]
52 | COc1ccccc1OCC(=O)Nc1ccc(N2CCCCC2)cc1 | inconclusive: 37.9 µM [inhibitor, partial curve, poor fit]
53 | C(=C\c1ccco1)/C1=NN(c2ccccc2)C(c2ccco2)C1 (centres undefined) | inconclusive: 19 µM [inhibitor, partial curve]
54 | CCN(CC)S(=O)(=O)c1ccc(C(=O)Nc2ccc(OCC(=O)N3CCOCC3)cc2)cc1 | inconclusive: 23.9 µM [inhibitor, partial curve]
55 | CCc1ccc2oc(-c3cccc(N)c3)nc2c1 | active: 0.239 µM
56 | O=[N+]([O-])c1cccc(-c2nc(Oc3ccc(Cl)cc3)c3ccccc3n2)c1 | inconclusive: 23.9 µM [inhibitor, partial curve, poor fit]
57 | CCN(CC(=O)Nc1c(F)cccc1F)C(=O)C1CCN(C(=O)Nc2ccccc2)CC1 | inactive
58 | C=CCn1c(CCCOc2ccc(Cl)cc2Cl)n[nH]c1=S | inconclusive: 26.9 µM [inhibitor, partial curve]
59 | C=CCOc1cccc(/C=N/NC(=O)CC(=O)NC2CCCCC2)c1 | inactive
60 | COc1ccc(S(=O)(=O)N2CCOC23CCN(S(=O)(=O)c2cc(F)ccc2F)CC3)cc1 | inactive
61 | CCCCc1nnc(NC(=O)C(C)Sc2nc(O)c(Cc3ccccc3)c(=O)[nH]2)s1 (centres undefined) | inconclusive: 26.9 µM [inhibitor, partial curve, poor fit]
62 | CCn1cc(S(=O)(=O)c2cccc(Cl)c2)c(=O)c2cc(F)c(N3CCN(c4ccccc4)CC3)cc21 | inactive
63 | O=C(Nc1ccc2c(c1)OCCO2)C1CCCN(S(=O)(=O)c2cccs2)C1 (centres undefined) | inconclusive: 23.9 µM [inhibitor, partial curve, poor fit]
64 | CCN(CC)C(=O)C1CCN(Cc2ccc(OCc3ccccc3)c(OC)c2)CC1 | inactive
65 | Cc1c(C(=O)NC2CC2)oc2ccccc12 | inconclusive: 37.9 µM [inhibitor, partial curve, poor fit]
66 | CCOC(=O)CNC(=O)N1CCCC(CCC(=O)NCc2ccc(F)c(F)c2)C1 (centres undefined) | inactive
67 | O=C(CCC(=O)OCC(=O)c1ccc(Br)cc1)NC1CCCCC1 | inconclusive: 37.9 µM [inhibitor, partial curve, poor fit]
68 | Cc1ccc(-n2nc(C)c(/C=N/NC(=O)c3cccs3)c2Cl)cc1 | inconclusive: 3.38 µM [inhibitor, partial curve, poor fit]
69 | CCOc1ccc(C(=O)NCCS(=O)(=O)N2CCN(c3ccccc3F)CC2)cc1OCC | inactive
70 | Cc1cc(Cl)ccc1NC(=O)CN(c1ccccc1Br)S(C)(=O)=O | inactive
71 | CC(C)NC(=O)c1cc(-c2ccco2)on1 | inconclusive: 26.9 µM [inhibitor, single point]
72 | COc1ccc(C(=O)COc2ccc(NC(C)=O)cc2)cc1 | inconclusive: 26.9 µM [inhibitor, single point]
73 | O=c1[nH]cnc2sc(-c3ccccc3)cc12 | active: 15.1 µM
74 | CCOc1ccccc1NC(=O)CSc1ccc(-c2sc(C)nc2C)nn1 | inconclusive: 23.9 µM [inhibitor, partial curve, poor fit]
